These results are taken from article PMC10528447 (Nature structural & molecular biology, 2023).

The data set concerns the molecule itself. The data set can be described thus: negative-stain EM.

B1: MBP-DELE1^CTD-R403A F431S (domain or fragment)
chain: not shown
The stoichiometry N is a count of units in the complex or per binding partner. Consider B1, for which the “stoichiometry N” value was 4.
